# Results published in the supplement of paper PMC8728848.
# The other results are listed elsewhere or left out.
# B1: CC1G-10077 (Coprinopsis cinerea), A8NDT7 (protein)
# chain: MALNEGVYWIRNSRFTNKVLDLDAANVAKGTSILDFNEHGTFNENHNQLWIVERFQSRDTYLIRSVHSNLVLDLSQGLSANGTPILCWTQHGGTNQQWRIEWVKDDNKTPLYRIVSVATGTAISHNEDDSSAYTVAWSVDDGPKQLWSFDPFVTPLLYRLRVKSTSRVLDLAAASADNGTLALAWEQHTAITKRNQLWWLPYRSGAEEYTIQCLETSTVADLSGGNSGNGTPIYGWQSHGGRNQQWKFEPTSDSGDYYHIKNVEGGSVMDAYMNDSQKRVGGWSNNGGDNQKWLLDPLPSPGPGWVLIQNGGTGKFLCSTPSGDIGTADGPETVYDYSVQWRFIQREYTGVYHVVNRATGAYLRQIGTSMPSIGLAEENDDELKDWWMLETYDNSEIGLASIISRWTGNVLDHYGGVSVQALDNNTENSYRSWAIIPARDWLTSFSLVNGQGGLCLAAQYAREETRLSTTANVNDFHAQWVFRKPSGSSGYTIQNKYNNHYVGGTSARWELVVCCNKYFGIRNTSTQKYLAIEDGQVTFQDQDMTDRKQCWELCSGRATDTSGNDYDLIYMDDDLLEVMIPWVGDKQGDLKHYIEKRATKKPPKDKGGWQLPAAGLIKKPKFNDIRQLLQELIEQWEWDVVNEEREQIQTLVSIDEAEARRLLGRRPHPDIVAAYQRSRSSTLFRIDRQGYFNIAGDRYVNIQGQYGDDSYFHIALPVGVRFGREQIRRFLRDSLDRSTSVTITPTTCKPPSGGPDYNRDPDSDGDNSWIKWTIAVVGTSAIKHSEL
# How the values were obtained:
# Assay in all cases: glycan array binding signal (z-score within array); higher = stronger binding
# Details in all cases: glycan notation: IUPAC condensed, linker removed
# [1] = biological target: Gal3S(b1-3)[Fuc(a1-4)]GlcNAc
# In short: (§1)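 Columns mapping to the same glycan were averaged after glycan names were converted to IUPAC-condensed notation. The data come from 3228 arrays in the Consortium for Functional Glycomics database, limited to those with an available protein sequence. Binding is reported as a within-array Z-score averaged across arrays of one protein sequence and across linkers.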
# Gal3S(b1-4)Glc = biological target: Gal3S(b1-4)Glc
# In short: as §1
# Gal3S(b1-4)Glc6S = biological target: Gal3S(b1-4)Glc6S
# In short: as §1
# Gal3S(b1-4)GlcNAc = biological target: Gal3S(b1-4)GlcNAc
# In short: as §1
# [2] = biological target: Gal3S(b1-4)[Fuc(a1-3)]Glc6S
# In short: as §1
# [3] = biological target: Gal3S(b1-4)[Fuc(a1-3)]GlcNAc
# In short: as §1
# [4] = biological target: Gal3S(b1-4)[Fuc(a1-3)]GlcNAc6S
# In short: as §1
# Gal3S4S(b1-4)GlcNAc = biological target: Gal3S4S(b1-4)GlcNAc
# In short: as §1
# Gal3S6S(b1-4)GlcNAc = biological target: Gal3S6S(b1-4)GlcNAc
# In short: as §1
# Gal3S6S(b1-4)GlcNAc6S = biological target: Gal3S6S(b1-4)GlcNAc6S
# In short: as §1
# Gal4S(b1-4)GlcNAc = biological target: Gal4S(b1-4)GlcNAc
# In short: as §1
# Gal4S6S(b1-4)GlcNAc = biological target: Gal4S6S(b1-4)GlcNAc
# In short: as §1
# Gal6P(b1-4)GlcNAc = biological target: Gal6P(b1-4)GlcNAc
# In short: as §1
# Gal6S(b1-3)GlcNAc = biological target: Gal6S(b1-3)GlcNAc
# In short: as §1
# Gal6S(b1-3)GlcNAc6S = biological target: Gal6S(b1-3)GlcNAc6S
# In short: as §1
# Gal6S(b1-4)Glc = biological target: Gal6S(b1-4)Glc
# In short: as §1
# Gal6S(b1-4)Glc6S = biological target: Gal6S(b1-4)Glc6S
# In short: as §1
# Gal6S(b1-4)GlcNAc = biological target: Gal6S(b1-4)GlcNAc
# In short: as §1
# Gal6S(b1-4)GlcNAc6S = biological target: Gal6S(b1-4)GlcNAc6S
# In short: as §1
# GalNAc(a1-3)Gal = biological target: GalNAc(a1-3)Gal
# In short: as §1
# GalNAc(a1-3)GalNAc = biological target: GalNAc(a1-3)GalNAc
# In short: as §1
# [5] = biological target: GalNAc(a1-3)GalNAc(b1-3)Gal(a1-4)Gal(b1-4)Glc
# In short: as §1
# [6] = biological target: GalNAc(a1-3)GalNAc(b1-3)Gal(a1-4)Gal(b1-4)GlcNAc
# In short: as §1
# GalNAc(b1-3)Gal = biological target: GalNAc(b1-3)Gal
# In short: as §1
# [7] = biological target: GalNAc(b1-3)Gal(a1-4)Gal(b1-4)GlcNAc
# In short: as §1
# [8] = biological target: GalNAc(b1-3)Gal(a1-4)Gal(b1-4)GlcNAc(b1-3)Gal(b1-4)Glc
# In short: as §1
# [9] = biological target: GalNAc(b1-3)Gal(a1-6)Gal(b1-4)Glc
# In short: as §1
# GalNAc(b1-3)GalNAc = biological target: GalNAc(b1-3)GalNAc
# In short: as §1
# GalNAc(b1-3)GlcNAc = biological target: GalNAc(b1-3)GlcNAc
# In short: as §1
# GalNAc(b1-4)Gal(b1-4)Glc = biological target: GalNAc(b1-4)Gal(b1-4)Glc
# In short: as §1
# GalNAc(b1-4)GlcNAc = biological target: GalNAc(b1-4)GlcNAc
# In short: as §1
# [10] = biological target: GalNAc(b1-4)GlcNAc(b1-2)Man
# In short: as §1
# [11] = biological target: GalNAc(b1-4)GlcNAc(b1-2)Man(a1-3)[GalNAc(b1-4)GlcNAc(b1-2)Man(a1-6)]Man(b1-4)GlcNAc(b1-4)GlcNAc
# In short: as §1
# [12] = biological target: GalNAc(b1-4)GlcNAc(b1-3)GalNAc(b1-4)GlcNAc
# In short: as §1
# GalNAc(b1-4)GlcNAc6S = biological target: GalNAc(b1-4)GlcNAc6S
# In short: as §1
# GalNAc(b1-6)GalNAc = biological target: GalNAc(b1-6)GalNAc
# In short: as §1
# GalNAc3S(b1-4)GlcNAc = biological target: GalNAc3S(b1-4)GlcNAc
# In short: as §1
# GalNAc3S(b1-4)GlcNAc3S = biological target: GalNAc3S(b1-4)GlcNAc3S
# In short: as §1
# [13] = biological target: GalNAc3S(b1-4)[Fuc(a1-3)]GlcNAc
# In short: as §1
# GalNAc4S6S(b1-4)GlcNAc = biological target: GalNAc4S6S(b1-4)GlcNAc
# In short: as §1
# GalNAc6S(b1-4)GlcNAc = biological target: GalNAc6S(b1-4)GlcNAc
# In short: as §1
# Glc(a1-4)Glc = biological target: Glc(a1-4)Glc
# In short: as §1
# [14] = biological target: Glc(a1-4)Glc(a1-4)Glc(a1-4)Glc
# In short: as §1
# Glc(a1-6)Glc(a1-6)Glc = biological target: Glc(a1-6)Glc(a1-6)Glc
# In short: as §1
# [15] = biological target: Glc(a1-6)Glc(a1-6)Glc(a1-6)Glc
# In short: as §1
# Glc(b1-4)Glc = biological target: Glc(b1-4)Glc
# In short: as §1
# Glc(b1-6)Glc = biological target: Glc(b1-6)Glc
# In short: as §1
# GlcA(b1-3)Gal = biological target: GlcA(b1-3)Gal
# In short: as §1
# GlcA(b1-3)GlcNAc = biological target: GlcA(b1-3)GlcNAc
# In short: as §1
# GlcA(b1-6)Gal = biological target: GlcA(b1-6)Gal
# In short: as §1
# [16] = biological target: GlcA3S(b1-3)Gal(b1-4)GlcNAc(b1-2)Man
# In short: as §1
# [17] = biological target: GlcA3S(b1-3)Gal(b1-4)GlcNAc(b1-3)Gal(b1-4)Glc
# In short: as §1
# [18] = biological target: GlcNAc(a1-3)Gal(b1-4)GlcNAc
# In short: as §1
# [19] = biological target: GlcNAc(a1-4)Gal(b1-3)GlcNAc
# In short: as §1
# [20] = biological target: GlcNAc(a1-4)Gal(b1-4)GalNAc
# In short: as §1
# [21] = biological target: GlcNAc(a1-4)Gal(b1-4)GlcNAc
# In short: as §1
# [22] = biological target: GlcNAc(a1-4)Gal(b1-4)GlcNAc(b1-3)Gal(b1-4)Glc
# In short: as §1
# [23] = biological target: GlcNAc(a1-4)Gal(b1-4)GlcNAc(b1-3)Gal(b1-4)GlcNAc
# In short: as §1
# [24] = biological target: GlcNAc(a1-4)Gal(b1-4)GlcNAc(b1-3)Gal(b1-4)GlcNAc(b1-3)Gal(b1-4)GlcNAc
# In short: as §1
# [25] = biological target: GlcNAc(a1-4)Gal(b1-4)GlcNAc(b1-3)Gal(b1-4)[Fuc(a1-3)]GlcNAc(b1-3)Gal(b1-4)[Fuc(a1-3)]GlcNAc
# In short: as §1
binder,measurement,setting,value
B1,glycan array binding signal (z-score),[1],-0.438
same,glycan array binding signal (z-score),Gal3S(b1-4)Glc,-0.433
same,glycan array binding signal (z-score),Gal3S(b1-4)Glc6S,-0.453
same,glycan array binding signal (z-score),Gal3S(b1-4)GlcNAc,-0.495
same,glycan array binding signal (z-score),[2],-0.31
same,glycan array binding signal (z-score),[3],-0.451
same,glycan array binding signal (z-score),[4],-0.528
same,glycan array binding signal (z-score),Gal3S4S(b1-4)GlcNAc,-0.534
same,glycan array binding signal (z-score),Gal3S6S(b1-4)GlcNAc,-0.418
same,glycan array binding signal (z-score),Gal3S6S(b1-4)GlcNAc6S,-0.371
same,glycan array binding signal (z-score),Gal4S(b1-4)GlcNAc,-0.404
same,glycan array binding signal (z-score),Gal4S6S(b1-4)GlcNAc,-0.493
same,glycan array binding signal (z-score),Gal6P(b1-4)GlcNAc,-0.493
same,glycan array binding signal (z-score),Gal6S(b1-3)GlcNAc,-0.094
same,glycan array binding signal (z-score),Gal6S(b1-3)GlcNAc6S,-0.314
same,glycan array binding signal (z-score),Gal6S(b1-4)Glc,0.062
same,glycan array binding signal (z-score),Gal6S(b1-4)Glc6S,0.111
same,glycan array binding signal (z-score),Gal6S(b1-4)GlcNAc,-0.049
same,glycan array binding signal (z-score),Gal6S(b1-4)GlcNAc6S,-0.429
same,glycan array binding signal (z-score),GalNAc(a1-3)Gal,0.671
same,glycan array binding signal (z-score),GalNAc(a1-3)GalNAc,-0.162
same,glycan array binding signal (z-score),[5],0.152
same,glycan array binding signal (z-score),[6],0.309
same,glycan array binding signal (z-score),GalNAc(b1-3)Gal,1.42
same,glycan array binding signal (z-score),[7],-0.066
same,glycan array binding signal (z-score),[8],2.66
same,glycan array binding signal (z-score),[9],1.07
same,glycan array binding signal (z-score),GalNAc(b1-3)GalNAc,-0.165
same,glycan array binding signal (z-score),GalNAc(b1-3)GlcNAc,1.23
same,glycan array binding signal (z-score),GalNAc(b1-4)Gal(b1-4)Glc,-0.482
same,glycan array binding signal (z-score),GalNAc(b1-4)GlcNAc,3.09
same,glycan array binding signal (z-score),[10],1.76
same,glycan array binding signal (z-score),[11],1.83
same,glycan array binding signal (z-score),[12],4.2
same,glycan array binding signal (z-score),GalNAc(b1-4)GlcNAc6S,4.35
same,glycan array binding signal (z-score),GalNAc(b1-6)GalNAc,-0.509
same,glycan array binding signal (z-score),GalNAc3S(b1-4)GlcNAc,-0.462
same,glycan array binding signal (z-score),GalNAc3S(b1-4)GlcNAc3S,-0.355
same,glycan array binding signal (z-score),[13],-0.43
same,glycan array binding signal (z-score),GalNAc4S6S(b1-4)GlcNAc,-0.346
same,glycan array binding signal (z-score),GalNAc6S(b1-4)GlcNAc,2.21
same,glycan array binding signal (z-score),Glc(a1-4)Glc,-0.482
same,glycan array binding signal (z-score),[14],-0.448
same,glycan array binding signal (z-score),Glc(a1-6)Glc(a1-6)Glc,-0.497
same,glycan array binding signal (z-score),[15],-0.522
same,glycan array binding signal (z-score),Glc(b1-4)Glc,-0.507
same,glycan array binding signal (z-score),Glc(b1-6)Glc,-0.505
same,glycan array binding signal (z-score),GlcA(b1-3)Gal,-0.418
same,glycan array binding signal (z-score),GlcA(b1-3)GlcNAc,-0.467
same,glycan array binding signal (z-score),GlcA(b1-6)Gal,-0.357
same,glycan array binding signal (z-score),[16],-0.411
same,glycan array binding signal (z-score),[17],-0.495
same,glycan array binding signal (z-score),[18],-0.489
same,glycan array binding signal (z-score),[19],-0.493
same,glycan array binding signal (z-score),[20],-0.544
same,glycan array binding signal (z-score),[21],-0.436
same,glycan array binding signal (z-score),[22],-0.478
same,glycan array binding signal (z-score),[23],-0.431
same,glycan array binding signal (z-score),[24],-0.384
same,glycan array binding signal (z-score),[25],-0.441
